Reference: PubChem BioAssay AID651687 (Broad Institute, 2012)
Where “and” joins values, the source holds several entries; their conditions need not be identical. Identical values can stand only once. The campaign covered roughly 350,000 compounds. About 600 (0.17%) were called active. This list was built around the results that the source calls inconclusive (neither active nor inactive); the mix of calls is not that of the screen.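 The calls were made as follows: active = every replicate shows inhibition of at least 40%; inconclusive = mean inhibition at least 40% but some replicate below; inactive = the rest.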

experiment: inhibitors of PGC1a acetylation signal, primary screen, cell-based, U2OS, AlphaScreen, inhibitor mode (AID 651687); details: AlphaScreen anti-acetyl-lysine, at 15.6 µM, stronger effect = higher value, with virally co-expressed GCN5 acetyltransferase;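 also: 0% = neutral control wells and 100% = positive control wells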

Compound	inhibition
COc1cccc(S(=O)(=O)N[C@H]2CC[C@H](CC(=O)NCc3ccc(F)cc3)O[C@@H]2CO)c1	active: 55.3%
Cc1cc(C(=O)Nc2cccc3c2O[C@H](CN(C)C(=O)Nc2ccc4c(c2)OCO4)[C@@H](C)CN([C@H](C)CO)C3=O)n(C)n1	inconclusive: 57.6%
COC(=O)C1CCN(Cc2nnc(-c3ccccc3)o2)CC1	inconclusive: 46.9%
COc1ccc2c3c([nH]c2c1)[C@H](CO)N(C(=O)c1ccncc1)CC31CN(C(=O)c2ccncc2)C1	inconclusive: 52.9%
C#CCN(C[C@@H]1[C@@H](OC(=O)NCC2CCCCC2)[C@@H](OC(=O)NCC2CCCCC2)Cn2c(=O)ccc(=O)n21)S(=O)(=O)c1ccc(C)cc1	active: 91.4%
C[C@H]1CN([C@@H](C)CO)C(=O)c2cc(/C=C/c3ccccc3)cnc2O[C@H]1CN(C)C(=O)CN(C)C	inconclusive: 53.1%
Cc1cc(C(=O)CSc2nnc(-c3ccccc3)o2)c(C)n1CC1COc2ccccc2O1 (stereo not given)	inconclusive: 51.2%
CCCOC(=O)c1ccc(-n2nnnc2SCC(=O)N2CCCCC2)cc1	inconclusive: 49%
O=c1c2cccnc2n(-c2ccccc2)n1Cc1ccc(Cl)cc1	active: 101%
O=C(COn1nnc2ccc(Cl)cc21)NC12CC3CC(CC(C3)C1)C2	active: 84.7%
CC(=O)NC1CCN(CC(=O)Nc2nccs2)CC1	inconclusive: 50.3%
CCO[C@@H]1OC(C(=O)O)=C[C@H](c2csc3ccccc23)[C@H]1CCCO	inactive: -18.7% and inactive: 9.1%
COc1ccc(CN(C)C[C@@H]2Oc3ccc(NS(=O)(=O)c4c(C)noc4C)cc3C(=O)N([C@H](C)CO)C[C@H]2C)cc1	inconclusive: 51.5%
O=C(NCCc1ccccc1)c1cccc(NC(=O)C2CCCCC2)c1	inactive: -9.69%
O=S(=O)(O)c1nc2ccccc2n1Cc1ccc(Cl)cc1	inconclusive: 47.2%
C[C@@H]1CN([C@@H](C)CO)C(=O)CCCn2cc(nn2)CO[C@H]1CN(C)Cc1ccc2c(c1)OCO2	inconclusive: 59.5%
Cc1ccc(C(=O)N(Cc2ccco2)c2c(N)n(Cc3ccccc3)c(=O)[nH]c2=O)cc1	inactive: -1.88%
C/C(CC(=O)Nc1ccccc1Br)=N\NC(=O)C(=O)N1CCCC1	inconclusive: 43.9%
CC(C)NC(=O)Nc1ccc2c(c1)C(=O)N([C@H](C)CO)C[C@@H](C)[C@H](CN(C)S(=O)(=O)c1ccccc1)OCCCC[C@@H](C)O2	inconclusive: 44.1%
C[C@@H](NC(=O)C[C@@H]1C=C[C@H](NC(=O)CN2CCOCC2)[C@@H](CO)O1)c1ccccc1	inactive: -3.36%
CCC(=O)N(C)C[C@@H]1Oc2ncc(-c3ccc(C#N)cc3)cc2C(=O)N([C@H](C)CO)C[C@@H]1C	inactive: 0.182%
CCOc1ccc(Nc2ncnc3ccc([N+](=O)[O-])cc23)cc1	active: 49.6%
COc1cccc(C(=O)CSc2nnc(CNS(=O)(=O)c3ccc(C)cc3)n2C)c1	active: 88.6%
C[C@@H]1CN([C@@H](C)CO)C(=O)c2cc(C3=CCCC3)cnc2O[C@@H]1CN(C)Cc1ccccc1F	inactive: 4.71%
C[C@@H]1CN([C@H](C)CO)C(=O)c2cc(NC(=O)C3CC3)ccc2O[C@@H]1CN(C)Cc1ccc(-c2ccccc2)cc1	inactive: -11.1%

Compound	inhibition
O=C(NCc1ccco1)c1scc2c1OCCO2	inconclusive: 50%
COc1ccc(N(CC(=O)Nc2ccccc2Cl)S(=O)(=O)c2ccc(C)cc2)cc1OC	inconclusive: 45.1%
CCCCC(=O)NCCc1cc2c(OC)ccc(OC)c2[nH]c1=O	inconclusive: 44.4%
O=C(C[C@@H]1C=C[C@H](NS(=O)(=O)c2ccc(F)cc2)[C@H](CO)O1)NC1CCC1	inactive: -0.764%
CC1(C)OC(=O)C(=Cc2ccc[nH]2)C(=O)O1	inconclusive: 40.2%
CC(C(=O)OCn1nnc2ccccc2c1=O)N1C(=O)c2ccccc2C1=O (stereo not given)	inconclusive: 48%
C[C@@H]1CCCCO[C@H](CN(C)C(=O)Cc2ccccc2)[C@H](C)CN([C@@H](C)CO)C(=O)c2cc(N(C)C)ccc2O1	inconclusive: 54.1%
CCOCCCNc1nc2c(c(=O)n(C)c(=O)n2C)n1CCCc1ccccc1	active: 40.3%
O=S(=O)(c1cccs1)N1CCCCN2[C@H](C1)[C@H](c1ccc(C3=CCCCC3)cc1)[C@@H]2CO	inactive: -2.39%
COc1cccc(N(C(=O)CCl)C(C(=O)NCCc2ccccc2)c2cccs2)c1 (stereo not given)	inconclusive: 29.3%
CCNC(=S)N1C2CCC1CC(NC(=O)NC1CCCCC1)C2 (stereo not given)	inconclusive: 48.2%
CC(=O)Nc1sc2c(c1-c1nc3ccccc3s1)CN(C(C)C)CC2	active: 51.9%
C[C@@H]1CN([C@H](C)CO)C(=O)c2cc(NS(=O)(=O)c3cccs3)ccc2O[C@@H]1CN(C)S(=O)(=O)c1ccc(F)cc1	inconclusive: 42.6%
COCCNC(=O)C(c1ccc(F)cc1)N(Cc1ccco1)C(=O)CCC(=O)Nc1nccs1 (stereo not given)	inconclusive: 41.4%
COc1ccc(OC)c(CN2CCN(C(=O)c3ccc(NS(=O)(=O)c4cccc([N+](=O)[O-])c4)cc3)CC2)c1	inconclusive: 40%
C[C@H]1CN([C@@H](C)CO)C(=O)CCCn2nncc2CO[C@@H]1CN(C)C(=O)Nc1ccccc1	inconclusive: 49.5%
COCC#Cc1ccc2c(c1)O[C@H](CN(C)C(=O)CN(C)C)[C@@H](C)CN([C@@H](C)CO)S2(=O)=O	inconclusive: 57.6%
COc1ccc(NC(=O)N[C@@H]2CC[C@H](CCn3cc(-c4ccccc4F)nn3)O[C@H]2CO)cc1	active: 61.6%
C[C@@H]1CN([C@H](C)CO)C(=O)c2cccc(NC(=O)C3CCCCC3)c2O[C@@H]1CN(C)CC1CCCCC1	inconclusive: 55%
COc1ccc(-c2csc(N3CCN(c4cc(C)nc5ccccc45)CC3)n2)cc1OC	inactive: -8.25%
COc1ccc(OCC(=O)NNC(=O)c2c(-c3ccccc3Cl)noc2C)cc1	active: 61.7%
CCn1c(COc2ccc(=O)n(-c3ccccc3)n2)nnc1SCc1ccc(C)cc1	inconclusive: 46.2%
CCOc1ccc(Nc2nc(NCc3ccco3)nc(N)c2[N+](=O)[O-])cc1	active: 72.4%
O=C(Cc1ccccn1)NCC[C@@H]1CC[C@H](NS(=O)(=O)c2ccccc2)[C@H](CO)O1	inactive: 10.3%
COC(=O)c1c(C)oc(C)c1S(=O)(=O)Nc1ccccc1	inconclusive: 50.1%

Compound	inhibition
COc1ccc(C(CNC(=O)c2cccc(N(C)C)c2)N2CCCC2)cc1 (stereo not given)	inconclusive: 46.8%
C[C@H](CO)N1C[C@H](C)[C@@H](CN(C)C(=O)C2CCCCC2)Oc2cc(C#Cc3ccncc3)ccc2S1(=O)=O	inconclusive: 4.14%
O=C1c2ccccc2C(=O)c2c1oc(C(F)(F)F)c2C(=O)c1ccccc1	inconclusive: 45%
C[C@@H]1CCCCO[C@H](CN(C)C(=O)NC2CCCCC2)[C@@H](C)CN([C@@H](C)CO)C(=O)c2cc(NC(=O)NC3CCCCC3)ccc2O1	inconclusive: 44.8%
Cc1cc(Cl)ccc1OCC(=O)Nc1cccc(S(=O)(=O)NC2=NCCCCC2)c1	inconclusive: 41%
C[C@@H]1CN([C@H](C)CO)C(=O)c2cc(C#CC(C)(C)O)cnc2O[C@H]1CN(C)C(=O)c1ccccc1F	inconclusive: 50.4%
Cc1ccccc1-c1nc(SCc2ccccn2)c2c(=O)n(C)c(=O)n(C)c2n1	inconclusive: 49.7%
CCOC(=O)c1csc(NC(=O)CCSc2ccccc2)n1	inactive: -4.01%
O=C(/C=C/c1ccc(F)cc1)NNC(=O)CCN1CCN(Cc2ccccc2)CC1	active: 51.8%
CCCC#Cc1ccc([C@@H]2[C@@H](CO)N3C(=O)CN(C(=O)Nc4cc(F)ccc4F)C[C@@H]23)cc1	inactive: 0.283%
CCCN(C)C[C@@H]1Oc2cc(C#C[C@H](C)O)ccc2S(=O)(=O)N([C@H](C)CO)C[C@@H]1C	inconclusive: 50.2%
CC(C)NC(=S)N=Nc1c(O)[nH]c2ccc(C(C)C)cc12	active: 47.5%
CC1CC(C)(C)CC(=O)C1C(=O)c1ccccc1 (stereo not given)	inconclusive: 48.7%
O=C1CCc2cc(S(=O)(=O)N3CCN(c4ccccc4)CC3)cc3c2N1CCC3	inactive: 4.86%
O=C(O)c1cccn1Cc1ccccc1F	inconclusive: 54%
CCC(C)NCCOCCOc1ccc(C)cc1OC (stereo not given)	inconclusive: 49.5%
O=C1c2ccccc2C(=O)N1c1ccc(Cc2ccncc2)cc1	inconclusive: 56.2%
Cn1ncc2c(O/N=C(\N)c3ccc(C(C)(C)C)cc3)ncnc21	active: 95.9%
Oc1ccc(C=Nc2ccc(N3CCOCC3)cc2)c(O)c1	active: 64.2%
CCOC(=O)c1sc2nc(C)nc(NCc3ccccc3OC)c2c1C	active: 62.9%
CCNC(=O)c1cc2c(c(-c3cccc(-c4ccncc4)c3)n1)[C@H](CCO)N(S(=O)(=O)CC)C2	inactive: 1.1%
Oc1ccc(C2CNCCc3c2cc(O)c(O)c3Cl)cc1 (stereo not given)	inconclusive: 42.2%
C[C@@H]1CN([C@H](C)CO)C(=O)Cc2cc(N(C)C)ccc2O[C@@H]1CN(C)C(=O)Nc1ccc(F)cc1	inactive: -6.9%
CC(/C=N/N1CCN(Cc2ccccc2)CC1)=C\c1ccccc1	inconclusive: 44.2%
O=C(C[C@@H]1C[C@H]2c3cc(NS(=O)(=O)c4ccc(F)cc4)ccc3O[C@H]2[C@H](CO)O1)NCc1ccccc1F	inactive: -8.05%
